# Experimental data from the supplement of paper PMC3334620.
# Over roughly 33,000 sequences, “E-score (-0.5 to 0.5)” has its median near -0.011; the highest 2% begin near 0.28. Some of the results follow.
# Target: T1, Gcr1 (UniProt P07261)
# T1 sequence: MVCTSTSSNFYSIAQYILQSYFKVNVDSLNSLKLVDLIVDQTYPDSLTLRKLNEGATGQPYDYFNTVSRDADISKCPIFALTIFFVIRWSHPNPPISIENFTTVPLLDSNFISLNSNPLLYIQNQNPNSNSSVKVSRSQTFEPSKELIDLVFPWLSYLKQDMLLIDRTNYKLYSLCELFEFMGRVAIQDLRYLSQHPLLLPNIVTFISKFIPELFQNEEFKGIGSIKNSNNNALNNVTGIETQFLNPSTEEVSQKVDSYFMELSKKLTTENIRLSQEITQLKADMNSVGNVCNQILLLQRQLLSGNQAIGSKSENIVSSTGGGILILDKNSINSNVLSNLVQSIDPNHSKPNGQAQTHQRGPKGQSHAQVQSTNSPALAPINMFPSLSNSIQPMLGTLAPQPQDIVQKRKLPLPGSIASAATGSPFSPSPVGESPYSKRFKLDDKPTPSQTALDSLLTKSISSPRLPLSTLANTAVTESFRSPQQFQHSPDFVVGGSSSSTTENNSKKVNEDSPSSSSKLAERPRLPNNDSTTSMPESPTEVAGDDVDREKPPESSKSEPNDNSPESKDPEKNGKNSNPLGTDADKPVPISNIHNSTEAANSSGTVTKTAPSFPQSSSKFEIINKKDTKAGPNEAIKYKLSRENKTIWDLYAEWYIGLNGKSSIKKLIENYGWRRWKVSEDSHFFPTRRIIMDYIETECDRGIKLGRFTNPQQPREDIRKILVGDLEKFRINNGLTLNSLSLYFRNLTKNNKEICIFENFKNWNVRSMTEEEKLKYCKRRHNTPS
# Experiment: PBM E-score (8-mer binding enrichment) (E-score (-0.5 to 0.5)); higher = stronger / more preferred TF binding; most listed sequences are background and not binding sites
# Conditions: protein concentration: 100 nM; construct: GST-full length
# Procedure, shortened: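 Each ungapped eight-base word and its reverse complement, pooled, received an E-score from the Universal PBM Analysis Suite. Underlying scans, normalised with masliner, recorded fluorescent anti-GST bound to GST-tagged yeast transcription factors. These were applied at about 100-200 nM to universal all-10-mer Agilent arrays double-stranded by primer extension.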
row,Sequence,PBM E-score
1,TAAAGATA,0.166
2,AAAATGCG,0.143
3,CAAGGCGC,0.152
4,AAAGACTT,-0.211
5,ACTGAGCT,0.0361
6,CTGAGATA,-0.0299
7,GTCAATGA,-0.0108
8,TATCCTAA,0.17
9,AAGCAGTC,0.0107
10,ACACCGGC,-0.0126
11,CGACTGTA,-0.182
12,AGTATGTA,0.12
13,TAGTAAAA,0.266
14,ATCAAGTA,-0.0597
15,CCATACGA,-0.214
16,ACAATCTG,-0.0945
17,TAGTGCCA,0.0147
18,ACGCTAGA,-0.0413
19,ACCGAGGA,-0.0437
20,CTTCACTA,0.076
21,AGACTGCG,-0.139
22,GATGACCC,-0.253
23,ACTCGAAC,0.0896
24,ATACCTAC,0.101
25,GAATTGCA,-0.147

row,Sequence,PBM E-score
1,CCAGCTCC,0.125
2,AGACTGGG,-0.00719
3,ACACCGGG,0.00596
4,ATAGTTTA,-0.0712
5,CTAGACGA,-0.0741
6,GCTTGAGA,0.051
7,AGTACGGC,-0.255
8,AAGTTTAC,0.164
9,CTATGGAG,0.0191
10,TATTCTGA,0.208
11,ATGGTGAG,-0.156
12,GACCAGTC,-0.264
13,AGGACAGA,-0.088
14,AGCAATGG,-0.0456
15,GCTTCTAC,0.301
16,CTCCGATA,-0.151
17,ATTTTATA,0.198
18,AGTTGTAA,0.0207
19,ACTAGCAC,-0.0196
20,CCGGTGAC,0.0775
21,GGAGGAGA,-0.052
22,CAAATTGC,0.152
23,ACGCTGCT,0.34
24,GAACTAGA,0.134
25,CCTCCCAA,-0.156

row,Sequence,PBM E-score
1,CTTGAATA,0.0461
2,AACCTTCG,-0.0361
3,AACCGTCA,-0.187
4,CTGGCGAC,0.111
5,ATATGCTA,0.115
6,GCAAATAA,0.0306
7,CGTCTCTA,0.0216
8,CCTTCAAA,0.0562
9,ATTCCCAG,0.2
10,AAGTAAAG,-0.0829
11,TAGGTAGA,0.116
12,TTGTCAAA,-0.015
13,GTACTCAC,-0.136
14,CATCGCTC,-0.108
15,CCTAACAA,0.189
16,GTATTAAA,-0.0151
17,CAGGCTGC,0.264
18,CCTGATAA,0.0527
19,CCCCTAAA,0.0536
20,GGATCGCA,0.142
21,CATGGAGA,0.0388
22,CCAGGAGA,-0.186
23,GGGTCCGA,0.0717
24,TAACGGTA,0.0755
25,TACTTTGA,0.0204

row,Sequence,PBM E-score
1,GGCGTACC,-0.0345
2,AAGGTTCC,0.216
3,ATCGCACC,-0.127
4,CCAAGTGA,-0.0336
5,GTTTTGAA,0.135
6,GGCGGTAA,-0.0395
7,AATGCGGG,0.0952
8,ATGGAAGC,0.344
9,CAGACATC,-0.153
10,ATTAGGAG,0.26
11,CCGATAAC,0.0742
12,ACAGTGAT,-0.0432
13,TCGATACA,0.0848
14,ATCTGCCC,-0.0841
15,AAACTTAG,0.0395
16,CGGAAAGC,-0.116
17,CATAGATA,-0.197
18,TTCGCGAA,0.244
19,CACCAGAG,0.101
20,TAGCGACA,0.113
21,AAGACGCA,0.0384
22,GCGCCCGA,0.265
23,AGTTTTAG,0.0273
24,GTTACTTA,-0.0744
25,GCATTAAC,0.109

row,Sequence,PBM E-score
1,ATCGGCGC,-0.0192
2,ACGCCTCA,-0.137
3,GGTATAAC,-0.036
4,ACACGATG,0.114
5,AGGAAGAC,0.103
6,AGCTCCAC,-0.0447
7,AAATAAGG,0.0561
8,TAGGATAA,-0.00169
9,CGCTAACC,0.125
10,ATCGTCAC,-0.136
11,GACCTCCC,-0.283
12,ACATTTTC,0.0949
13,CCAGAAGG,0.0811
14,GTGCTTAA,0.0798
15,TCATCGGA,-0.0211
16,TCGGGGCA,0.161
17,ACCTAATA,0.0657
18,ACTGACAA,0.244
19,GCAAGTCA,-0.0307
20,ACAACTAA,0.166
21,ATCCTAAA,0.211
22,GGACATGA,-0.106
23,ATAGTCAA,0.0839
24,GGTCGCGA,-0.0186
25,AGGGTGCC,0.39

row,Sequence,PBM E-score
1,GGGTGTAA,0.0413
2,AATTCAAA,-0.0968
3,ACCAAGGG,-0.0292
4,AGGACTGG,-0.122
5,CCTCCTAG,-0.24
6,CTCCAGAG,0.0742
7,GTGACATA,0.217
8,CCCACTGA,-0.0104
9,CCACAGCC,-0.154
10,CCCAGTCC,-0.0352
11,ACGGACAT,-0.129
12,AGCAGACA,-0.143
13,CACAAAGG,0.0646
14,CTAGCAAC,0.215
15,ACGTGACG,-0.146
16,TCCACGCA,0.0449
17,GTAGAATA,-0.0431
18,GGACGCAC,0.127
19,TAGATGGA,0.0525
20,GAGTCCGC,0.0705
21,ATCACAAT,-0.0901
22,CACGGAAA,-0.0551
23,AATATGAA,0.16
24,CTGCCTGA,0.0775
25,ACTACCGA,0.0278

row,Sequence,PBM E-score
1,ATTCCGCG,0.0984
2,AACCTAAT,0.183
3,AAGCCAGA,0.202
4,GTATCGGA,0.0494
5,ACACGAAT,0.319
6,CAGCTCGG,-0.217
7,ATGGCGTA,-0.166
8,ACTAACGG,0.0396
9,GCTACTTA,0.134
10,GATGGCCC,-0.332
11,GAAGACTA,-0.128
12,GATAACAA,-0.156
13,CTCCACGC,-0.112
14,CCCTAGTA,0.0614
15,ACCGACCT,-0.161
16,ACTCGCCT,-0.164
17,CTACTCCA,0.00566
18,GACTGAGA,-0.0436
19,AGGGTGGC,0.018
20,CGCTCGAG,-0.298
21,GCGTCCCC,0.304
22,CATGGTGA,-0.03
23,GGGCCAAC,-0.13
24,CTTTGGCA,0.0282
25,AAAAGGAA,0.361

row,Sequence,PBM E-score
1,AACAGGAT,0.318
2,AAAACTAC,0.0785
3,AGCTGGAC,-0.182
4,CTACCTAA,0.0905
5,GGAATGTA,0.119
6,GACTCTGC,0.0834
7,CATGTGAA,-0.182
8,CATGGCTC,-0.125
9,CCCAGGGC,-0.152
10,GGTCAAAA,-0.0988
11,ACCGGACC,-0.16
12,CCAATGTC,0.116
13,CCAACGCA,0.082
14,TAAGCAGA,-0.0548
15,GACGACTC,-0.0124
16,CCCAACGA,-0.087
17,ACCTTAGT,0.135
18,GAGGGATC,-0.0613
19,AGTCGGCG,0.0915
20,GAAGTTTA,0.203
21,ACTCGTGC,0.0192
22,AGCTGAAA,0.0612
23,AGGTACTC,0.0501
24,CACGATCA,-0.0966
25,CGCATGCC,-0.00713

row,Sequence,PBM E-score
1,ACCTGCGG,-0.0518
2,ATGGCTCA,-0.132
3,AATGTCCT,-0.237
4,AGACCTCA,-0.167
5,AACCTGAC,-0.0316
6,AGGACTCA,-0.154
7,CGTCCCAG,-0.0215
8,ACGTGTTG,-0.0129
9,CAGTGGCG,-0.0284
10,AGATGCTC,0.0444
11,GTAGGCCA,-0.106
12,CTCGCAGC,0.111
13,GAAGTTGC,0.176
14,ACCGATGG,-0.017
15,AGCTATAC,0.0742
16,CGACATAA,0.132
17,ACGAAGGC,-0.0795
18,ACCGAAGC,0.0747
19,ATCGCGCG,-0.268
